About 2,200 (0.71%) of roughly 310,000 compounds showed an effect of 50% or more. The effect is printed as a negative number. The list shows a part of the results.
Target: human ether-à-go-go-related gene (hERG) potassium channel (human, UniProt Q12809)
Test: primary screen, population patch clamp on CHO cells stably expressing hERG

Chain of human ether-à-go-go-related gene (hERG) potassium channel (Q12809 whole entry, looked up): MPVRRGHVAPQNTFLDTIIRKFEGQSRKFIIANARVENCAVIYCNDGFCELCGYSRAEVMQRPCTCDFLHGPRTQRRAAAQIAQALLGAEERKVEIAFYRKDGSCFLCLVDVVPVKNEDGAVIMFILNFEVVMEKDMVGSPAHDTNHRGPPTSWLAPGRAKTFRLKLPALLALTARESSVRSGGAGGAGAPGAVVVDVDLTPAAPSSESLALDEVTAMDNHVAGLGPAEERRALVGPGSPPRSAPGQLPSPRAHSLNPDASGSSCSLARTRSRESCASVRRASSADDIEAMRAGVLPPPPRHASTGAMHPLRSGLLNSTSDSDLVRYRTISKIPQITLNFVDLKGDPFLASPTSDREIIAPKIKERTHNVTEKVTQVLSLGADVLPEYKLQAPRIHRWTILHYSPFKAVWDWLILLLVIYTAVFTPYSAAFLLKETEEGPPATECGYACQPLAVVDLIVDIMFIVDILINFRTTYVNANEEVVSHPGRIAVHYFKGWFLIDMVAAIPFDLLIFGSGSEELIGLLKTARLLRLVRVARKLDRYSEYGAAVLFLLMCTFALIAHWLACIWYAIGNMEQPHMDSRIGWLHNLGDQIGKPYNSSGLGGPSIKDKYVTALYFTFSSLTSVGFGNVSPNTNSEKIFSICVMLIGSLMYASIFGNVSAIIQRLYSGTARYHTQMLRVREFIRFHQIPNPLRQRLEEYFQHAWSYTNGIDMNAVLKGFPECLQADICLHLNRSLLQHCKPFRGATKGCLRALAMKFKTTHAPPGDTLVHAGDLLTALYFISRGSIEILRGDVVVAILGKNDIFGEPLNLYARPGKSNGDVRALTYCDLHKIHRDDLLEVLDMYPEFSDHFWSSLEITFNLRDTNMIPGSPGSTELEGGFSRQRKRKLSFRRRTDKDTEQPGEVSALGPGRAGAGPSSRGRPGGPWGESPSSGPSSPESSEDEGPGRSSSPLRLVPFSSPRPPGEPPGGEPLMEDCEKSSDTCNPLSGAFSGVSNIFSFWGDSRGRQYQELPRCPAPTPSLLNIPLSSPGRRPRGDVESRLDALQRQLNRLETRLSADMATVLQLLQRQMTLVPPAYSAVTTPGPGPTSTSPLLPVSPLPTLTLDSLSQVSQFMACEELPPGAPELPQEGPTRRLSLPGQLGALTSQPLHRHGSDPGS

Compound | hERG current change (%, negative = inhibition) at 1uM
O=C(CSc1nc(-c2ccccc2)nc2c1Cc1ccccc1O2)Nc1ccccc1 | 4.64%
CC(C)CCn1nnnc1CN1CCN(c2ccccc2)CC1 | 5.07%
CCOC1CCc2c(C)nc(N)nc2S1 (stereo not shown) | 13.3%
CCNc1nc(NCC)nc(C(=O)Nc2ccccc2)n1 | -6.29%
O=S(=O)(c1ccccc1)N1CCC(O)(CSc2ccc(Cl)cc2)CC1 | 12.1%
CCCCC(=O)NC(=S)NNC(=O)CC#N | 5.04%
CC(=O)C1=C(C)NC(SCC(N)=O)=C(C#N)C1C (stereo not shown) | 14.9%
CN(C)c1ccc(C(CNS(=O)(=O)c2ccc3ccccc3c2)c2c[nH]c3ccccc23)cc1 (stereo not shown) | 13.4%
CC1CCN(C(C)C(=O)Nc2ccccc2-c2ccccc2)CC1.O=C(O)C(=O)O (stereo not shown) | 1.94%
O=[N+]([O-])c1cc(/C=N/N2CCN(C3c4ccccc4-c4ccccc43)CC2)ccc1Cl | -0.218%
CCOC(=O)c1csc(-c2ccc3c(c2)CCO3)n1 | 6.27%
Cc1cccc(-n2cnc3cc(C(=O)N4CCCCC4)ccc32)c1 | 0.334%
CC(OC(=O)C1=NN(c2ccccc2)C(=O)CC1)C(=O)NC1CCCCC1C (stereo not shown) | 3.01%
C=C1SC(=Nc2c(C)cc(C)cc2C)N(C(=O)c2sc3ccccc3c2Cl)C12CCCCC2 | 18%
COc1ccc(NC(=O)C(=O)NCCCn2ccnc2)cc1 | 5.97%
CCCc1cc(=O)oc2c(C)c(OCC(=O)N3CCC(C(=O)O)CC3)ccc12 | 11.1%
CC(=O)Nc1ccccc1NC(=O)C/C(C)=N/NC(=O)C(=O)Nc1cccc(Cl)c1C | 5.98%
COc1c(/C=N/NC(=O)c2ccccc2O)c(CCN(C)C(C)=O)cc2c1OCO2 | 8.13%
CCOC(=O)C1(CCOC)CCN(CC(C)Cc2ccc3c(c2)OCO3)CC1 (stereo not shown) | -12.4%
COc1ccc(CCC(=O)NNC(=S)NCc2ccc(F)cc2)cc1 | 18.5%

Compound | hERG current change (%, negative = inhibition) at 1uM
CC(C)COC(=O)N1CC(O)CC1C(=O)O (stereo not shown) | 15.9%
N#Cc1cnn2ccn(C3OC(CO)C(O)C3O)c12 (stereo not shown) | 6.32%
O=[N+]([O-])c1cccc(C=Nc2cc3c(cc2Br)OCCO3)c1 | 7.33%
CCOC(=O)C1=C(c2ccccc2)NC(=O)NC1c1ccc(OCC#N)c(OC)c1 (stereo not shown) | 9.08%
O=C(O)c1c(C(=O)N2N=C3/C(=C/c4ccccc4)CCCC3C2c2ccccc2)cccc1[N+](=O)[O-] (stereo not shown) | 5.2%
COc1ccc(-c2cc(C(=O)Nc3cc(C)n(Cc4ccc(Cl)cc4)n3)no2)cc1OC | -4.88%
CCOc1ccc(CN2CCNC(=O)C2CC(=O)N(C)CC2CCOCC2)cc1 (stereo not shown) | 12.7%
Cc1ccc(C(=O)NC(=S)NNC(=O)CCN2CCOCC2)cc1 | 14.8%
O=C(c1ccc(S(=O)(=O)N2CCOCC2)cc1)N1CCN(c2ccccn2)CC1 | 5.3%
Cc1ccc(C(=O)NCC(=O)NC23CC4CC(CC(C4)C2)C3)cc1 | 10.9%
COCCNC(=O)/C(C#N)=C/c1ccc(O)cc1 | 11.7%
Cc1nn(C)c(NC(=O)c2ccc(Cl)cc2Cl)c1Br | 8.43%
Cc1c(/C(O)=C2\C(=O)C(=O)N(CCN(C)C)C2c2ccco2)cnn1-c1ccccc1 (stereo not shown) | 7.1%
CN1CCN(C(=O)c2cc([N+](=O)[O-])cc([N+](=O)[O-])c2)CC1 | 17%
Cc1cccc(/C=N/NC(=O)Cc2ccc(Cl)cc2)c1O | 10.1%
COc1ccc(-n2nc(C(=O)NCC(=O)NCc3ccco3)c3ccccc3c2=O)cc1 | -3%
COc1ccc(NC(C)=O)cc1S(=O)(=O)N1CCN(C(=O)c2ccccc2F)CC1 | 6.87%
Cc1nc(N(C)Cc2ccccc2)c2c(C)c(C)sc2n1 | 7.12%
COc1ccc(-n2nc(C(=O)NCC(=O)NCCCN3CCC(C)CC3)c3ccccc3c2=O)cc1Cl | -28.3%
CCOC(=O)C(C)/C(C)=N/NC(N)=S (stereo not shown) | 10.3%

Compound | hERG current change (%, negative = inhibition) at 1uM
Cc1ccc(S(=O)(=O)Nc2cc3c4c(c2)CC(=O)N4CCC3)cc1 | -6.25%
COc1ccc(C(=O)COC(=O)c2ccc(-n3cnnn3)cc2)c(OC)c1 | 8.62%
O=C(/C=C/c1ccccc1)N1CCN(c2ccccn2)CC1 | -3.17%
O=C(NNC1=C(C(=O)C(F)(F)F)CCC1)c1ccc(Cl)cc1 | 9.2%
CC(C)COC(=O)C(C#N)c1nc2ccccc2nc1N1CCN(Cc2ccc3c(c2)OCO3)CC1 (stereo not shown) | 5.29%
O=C(c1ccccc1)c1ccc2c(c1)OCCCO2 | 9.42%
Nc1nc(Cl)cc(NCCc2ccc(O)cc2)n1 | 16.1%
CCOC(=O)c1c(CN2CCC(C)CC2)n(C)c2cc(Br)c(OC)cc12 | 15.3%
CCOC(=O)C(NC(=O)c1ccccc1F)(Nc1cc(C)on1)C(F)(F)F (stereo not shown) | 15.2%
NC(=S)Cc1ccc(Cl)cc1Cl | 11.2%
COc1ccc(S(=O)(=O)N(C)CC(=O)NCCCn2ccnc2)cc1Cl | 2.85%
COC(=O)c1cc2nc(-c3ccccc3)cc(C)n2n1 | 0.605%
COC(=O)c1cc(S(=O)(=O)Nc2cccc(S(N)(=O)=O)c2)oc1C | 8.79%
Cc1ccc(NC(=O)NN2CCOCC2)cc1 | 12.5%
Cc1nnc(SCc2ccc(Cl)cc2Cl)[nH]c1=O | 4.16%
O=C(Nc1ccc([N+](=O)[O-])cc1Cl)c1cc(Cl)ccc1O | 9.94%
Cc1cc(Cl)ccc1OCCCC(N)=O | -0.586%
O=C(Nc1cccc(S(=O)(=O)N2CCCC2)c1)c1ccc2c(c1)OCO2 | 8.01%

Reference: paper PMC4336329 (PLoS ONE, 2015)
